Test results from US20150307588A1 (ACCELERON PHARMA, published 2015).

Target: T1, hBMP-9 (human, UniProt Q9UK05 320-429)
T1 construct: also called human BMP-9
T1 sequence (looked up): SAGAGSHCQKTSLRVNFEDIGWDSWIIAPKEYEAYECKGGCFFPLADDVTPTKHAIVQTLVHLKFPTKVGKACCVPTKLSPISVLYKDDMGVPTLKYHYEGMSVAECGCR
Experiment: SPR kinetics, captured construct
Experimental: BMP-9 binding to captured CHO-cell-derived proteins was assessed at ligand concentrations of 0.0195-0.625 nM in two-fold increments. RU, response units.

B1: hENG(26-346)-hFc (Fc fusion)
chain: ETVHCDLQPVGPERDEVTYTTSQVSKGCVAQAPNAILEVHVLFLEFPTGPSQLELTLQASKQNGTWPREVLLVLSVNSSVFLHLQALGIPLHLAYNSSLVTFQEPPGVNTTELPSFPKTQILEWAAERGPITSAAELNDPQSILLRLGQAQGSLSFCMLEASQDMGRTLEWRPRTPALVRGCHLEGVAGHKEAHILRVLPGHSAGPRTVTVKVELSCAPGDLDAVLILQGPPYVSWLIDANHNMQIWTTGEYSFKIFPEKNIRGFKLPDTPQGLLGEARMLNASIVASFVELPLASIVSLHASSCGGRLQTSPAPIQTTPPTG[letters of human IgG1 Fc and a few adjoining residues omitted]
In the case of B1, the “fold decrease in dissociation rate against the full-length construct hENG(26-586)-hFc” value is reported as 10 fold.
